Source: PubChem BioAssay (Tox21)
Several values for one entry are separate records, joined by “and”; a condition that tells them apart may be missing. Equal entries are not always repeated. This list was built around the results that the source calls inconclusive (neither active nor inactive); the mix of calls is not that of the screen. For some assays here: A potency beside an inconclusive call is a rough fit, not a confirmed value. Some compounds were tested as several samples or in several runs, with calls that do not always agree. Activity calls are given as the source filed them. The call rests on the fitted dose curve; in most records, active means well fitted curve in the direction sought with a large enough effect in the repeat runs; inconclusive means weak or mixed curves; inactive means no such curve, though single readings can be large; an effect the other way counts as inactive or inconclusive.

Tests used:
[1] = Caspase-3/7 induction in CHO-K1 cells by small molecules, qHTS cell viability counter screen (AID 1346979); further: nearly all actives have a fitted effect of over 35% in size; further: potency means the concentration at half of the fitted maximal effect
In short: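 Seeding: 1,500 CHO-K1 cells/well. Rest: 5hr, 37C. Treatment: compounds in DMSO, 16hr. Read: CellTiter-Fluor, 1hr, fluorescence.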

[2] = Caspase-3/7 induction in HepG2 cells by small molecules, qHTS cell viability counter screen (AID 1346981); further: nearly all actives have a fitted effect of over 30% in size; further: potency means the concentration at half of the fitted maximal effect
In short: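 In this quantitative HTS counter screen, compounds delivered in DMSO were left on unmodified HepG2 cells for 16 hr at 37 C. Viability was then determined fluorometrically with CellTiter-Fluor, in parallel with caspase-3/7 induction in the same wells.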

[3] = target: Cytochrome P450 2D6 (Homo sapiens) (UniProt P10635); experiment: Cytochrome P450 Family 2 Subfamily D Member 6 (CYP2D6) small molecule antagonists: luciferase reporter qHTS assay (AID 1671196); further: nearly all actives have a fitted effect of over 50% in size; further: potency means the concentration at half of the fitted maximal effect; on activity change, negative = inhibition: series mostly up to about 120 µM; on the % scale 0 is the no-effect control and ±100 the full control effect
In short: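 Test chemicals meet CYP2D6 plus proluciferin substrate (10 min, RT); NADPH regenerating solution then drives turnover for 1 h. Detection reagent halts the reaction; luminescence measured after 20 min.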

[4] = target: Cytochrome P450 1A2 (Homo sapiens) (UniProt P05177); experiment: Cytochrome P450 Family 1 Subfamily A Member 2 (CYP1A2) small molecule antagonists: luciferase reporter qHTS assay (AID 1671199); further: nearly all actives have a fitted effect of over 50% in size; further: potency means the concentration at half of the fitted maximal effect; on activity change, negative = inhibition: series mostly up to about 120 µM; on the % scale 0 is the no-effect control and ±100 the full control effect
In short: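 Steps: enzyme-substrate mix dispensed; test compounds and furafylline control pinned in; 10 min room temperature; NADPH regeneration solution added, 1 h; reaction stopped with luciferin detection reagent; luminescence read after 20 min.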

[5] = target: Nuclear receptor subfamily 1 group I member 2 (Homo sapiens) (UniProt O75469); experiment: Human pregnane X receptor (PXR) small molecule agonists, qHTS assay (AID 1346982); further: nearly all actives have a fitted effect of over 35% in size; further: potency means the concentration at half of the fitted maximal effect; on activation: on the % scale 0 is the no-effect control and ±100 the full control effect
In short: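 Reporter HepG2 cells expressing PXR-Luc are cultured in charcoal-stripped FBS (5%), treated with compounds for 24 hr at 37 C, and assayed by ONE-Glo luminescence after 30 min at room temperature.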

[6] = target: Cytochrome P450 2C19 (Homo sapiens) (UniProt P33261); experiment: Cytochrome P450 Family 2 Subfamily C Member 19 (CYP2C19) small molecule antagonists: luciferase reporter qHTS assay (AID 1671197); further: potency means the concentration at half of the fitted maximal effect; nearly all actives have a fitted effect of over 65% in size
In short: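 Compounds were tested on CYP2C19 activity via proluciferin conversion to luciferin. The 37C, 1 h reaction followed NADPH addition; detection reagent stopped it.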

[7] = target: Cytochrome P450 2C9 (Homo sapiens) (UniProt P11712); experiment: Cytochrome P450 Family 2 Subfamily C Member 9 (CYP2C9) small molecule antagonists: luciferase reporter qHTS assay (AID 1671198); further: potency means the concentration at half of the fitted maximal effect; nearly all actives have a fitted effect of over 50% in size
In short: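 P450-Glo proluciferin substrate with CYP2C9 enzyme; 10 min RT preincubation, then NADPH regeneration 1 h at 37C; luciferin detection reagent 20 min RT, luminescence in relative luminescence units.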

[8] = target: Nuclear receptor subfamily 1 group I member 2 (Homo sapiens) (UniProt O75469); experiment: CYP3A4 induction through human pregnane X receptor (PXR) by small molecules, qHTS assay (AID 1346984); further: on the % scale 0 is the no-effect control and ±100 the full control effect; nearly all actives have a fitted effect of over 40% in size
In short: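 Induction measured in HepG2-based DPX-2 cells co-expressing human PXR and a CYP3A4 promoter-driven luciferase. After a 24-hour compound exposure, cells received CYP3A4 luciferin substrate at 3uM final for 3 hours, and light output was then recorded.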

[9] = target: Voltage-gated inwardly rectifying potassium channel KCNH2 (Homo sapiens) (UniProt Q12809); experiment: Human Ether-a-go-go-Related Gene (hERG) channel small molecule antagonists: fluorescence cell-based qHTS assay (AID 1671200); further: potency means the concentration at half of the fitted maximal effect; nearly all actives have a fitted effect of over 50% in size
In short: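 First, 1000 cells per well are seeded and cultured overnight at 37 C. Next, FluxOR II dye is loaded for 1 h at room temperature, protected from light. After 10 more minutes, stimulus is added and fluorescence is read.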

[10] = target: Nuclear receptor subfamily 1 group I member 2 (Homo sapiens) (UniProt O75469); experiment: Human pregnane X receptor (PXR) activation by small molecules, qHTS assay (AID 1346985); further: potency means the concentration at half of the fitted maximal effect; nearly all actives have a fitted effect of over 40% in size
In short: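 DPX-2 cells (HepG2 co-transfected with a PXR response element and a CYP3A4-promoter luciferase construct) were seeded at 2,000 per well, rested 5 hr at 37C, then exposed to DMSO-dissolved compounds for 24 hr. Activation was read as luciferase luminescence.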
Tags describe the fitted curve by direction and shape.

UniProt P10635, sequence (P10635 whole entry, looked up): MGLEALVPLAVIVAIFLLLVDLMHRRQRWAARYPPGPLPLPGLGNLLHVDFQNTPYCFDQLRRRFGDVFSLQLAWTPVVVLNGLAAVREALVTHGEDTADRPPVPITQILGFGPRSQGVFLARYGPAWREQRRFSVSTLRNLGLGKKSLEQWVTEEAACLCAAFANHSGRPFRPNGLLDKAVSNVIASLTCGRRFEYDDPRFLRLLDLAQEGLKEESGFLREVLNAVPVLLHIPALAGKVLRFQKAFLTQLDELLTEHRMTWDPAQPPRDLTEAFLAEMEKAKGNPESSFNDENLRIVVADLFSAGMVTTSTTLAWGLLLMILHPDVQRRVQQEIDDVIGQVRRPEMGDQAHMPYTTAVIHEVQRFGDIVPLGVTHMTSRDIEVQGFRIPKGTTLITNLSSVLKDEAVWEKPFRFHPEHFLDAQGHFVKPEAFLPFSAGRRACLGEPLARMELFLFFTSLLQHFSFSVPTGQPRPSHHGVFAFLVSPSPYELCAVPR
UniProt P11712, sequence (P11712 whole entry, looked up): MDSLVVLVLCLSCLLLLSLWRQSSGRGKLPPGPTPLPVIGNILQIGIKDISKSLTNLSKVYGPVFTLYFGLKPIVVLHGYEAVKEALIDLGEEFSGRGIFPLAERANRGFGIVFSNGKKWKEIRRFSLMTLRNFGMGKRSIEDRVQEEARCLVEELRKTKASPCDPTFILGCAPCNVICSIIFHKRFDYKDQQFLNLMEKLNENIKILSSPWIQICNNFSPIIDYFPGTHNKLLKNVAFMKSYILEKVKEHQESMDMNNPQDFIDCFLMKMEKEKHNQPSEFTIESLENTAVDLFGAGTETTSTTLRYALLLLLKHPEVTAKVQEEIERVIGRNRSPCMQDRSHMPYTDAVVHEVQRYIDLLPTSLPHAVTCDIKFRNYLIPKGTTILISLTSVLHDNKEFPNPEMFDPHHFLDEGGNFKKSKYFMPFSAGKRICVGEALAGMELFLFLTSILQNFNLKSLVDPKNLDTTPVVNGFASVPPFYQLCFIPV
UniProt P33261, sequence (P33261 whole entry, looked up): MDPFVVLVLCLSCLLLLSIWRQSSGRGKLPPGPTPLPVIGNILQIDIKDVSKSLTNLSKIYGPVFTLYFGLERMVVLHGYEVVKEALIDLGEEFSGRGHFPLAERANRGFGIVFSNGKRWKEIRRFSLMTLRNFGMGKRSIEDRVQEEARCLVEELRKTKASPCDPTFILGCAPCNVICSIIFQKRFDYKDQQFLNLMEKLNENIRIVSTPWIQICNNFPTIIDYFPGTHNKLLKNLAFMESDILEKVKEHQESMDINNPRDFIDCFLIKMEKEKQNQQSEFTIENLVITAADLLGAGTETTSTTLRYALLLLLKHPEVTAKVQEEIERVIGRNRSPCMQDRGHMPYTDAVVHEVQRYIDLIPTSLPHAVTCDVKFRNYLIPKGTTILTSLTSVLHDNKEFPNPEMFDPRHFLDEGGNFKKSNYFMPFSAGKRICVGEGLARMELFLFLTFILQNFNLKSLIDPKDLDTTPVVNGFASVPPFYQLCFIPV
UniProt P05177, sequence (P05177 whole entry, looked up): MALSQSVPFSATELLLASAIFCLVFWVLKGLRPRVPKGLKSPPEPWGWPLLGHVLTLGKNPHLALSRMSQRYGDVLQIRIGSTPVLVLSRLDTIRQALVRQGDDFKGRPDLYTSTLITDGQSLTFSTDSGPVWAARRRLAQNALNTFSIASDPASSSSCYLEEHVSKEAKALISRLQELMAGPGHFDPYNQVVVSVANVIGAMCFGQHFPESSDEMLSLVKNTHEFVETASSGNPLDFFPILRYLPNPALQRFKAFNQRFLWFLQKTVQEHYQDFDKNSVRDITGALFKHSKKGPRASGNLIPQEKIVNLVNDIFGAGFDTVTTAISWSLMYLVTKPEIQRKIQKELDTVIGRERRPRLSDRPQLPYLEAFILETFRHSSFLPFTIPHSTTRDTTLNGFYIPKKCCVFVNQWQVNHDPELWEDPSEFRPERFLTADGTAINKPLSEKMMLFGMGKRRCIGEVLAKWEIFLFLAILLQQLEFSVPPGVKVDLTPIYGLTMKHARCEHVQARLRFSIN
UniProt Q12809, sequence (Q12809 whole entry, looked up): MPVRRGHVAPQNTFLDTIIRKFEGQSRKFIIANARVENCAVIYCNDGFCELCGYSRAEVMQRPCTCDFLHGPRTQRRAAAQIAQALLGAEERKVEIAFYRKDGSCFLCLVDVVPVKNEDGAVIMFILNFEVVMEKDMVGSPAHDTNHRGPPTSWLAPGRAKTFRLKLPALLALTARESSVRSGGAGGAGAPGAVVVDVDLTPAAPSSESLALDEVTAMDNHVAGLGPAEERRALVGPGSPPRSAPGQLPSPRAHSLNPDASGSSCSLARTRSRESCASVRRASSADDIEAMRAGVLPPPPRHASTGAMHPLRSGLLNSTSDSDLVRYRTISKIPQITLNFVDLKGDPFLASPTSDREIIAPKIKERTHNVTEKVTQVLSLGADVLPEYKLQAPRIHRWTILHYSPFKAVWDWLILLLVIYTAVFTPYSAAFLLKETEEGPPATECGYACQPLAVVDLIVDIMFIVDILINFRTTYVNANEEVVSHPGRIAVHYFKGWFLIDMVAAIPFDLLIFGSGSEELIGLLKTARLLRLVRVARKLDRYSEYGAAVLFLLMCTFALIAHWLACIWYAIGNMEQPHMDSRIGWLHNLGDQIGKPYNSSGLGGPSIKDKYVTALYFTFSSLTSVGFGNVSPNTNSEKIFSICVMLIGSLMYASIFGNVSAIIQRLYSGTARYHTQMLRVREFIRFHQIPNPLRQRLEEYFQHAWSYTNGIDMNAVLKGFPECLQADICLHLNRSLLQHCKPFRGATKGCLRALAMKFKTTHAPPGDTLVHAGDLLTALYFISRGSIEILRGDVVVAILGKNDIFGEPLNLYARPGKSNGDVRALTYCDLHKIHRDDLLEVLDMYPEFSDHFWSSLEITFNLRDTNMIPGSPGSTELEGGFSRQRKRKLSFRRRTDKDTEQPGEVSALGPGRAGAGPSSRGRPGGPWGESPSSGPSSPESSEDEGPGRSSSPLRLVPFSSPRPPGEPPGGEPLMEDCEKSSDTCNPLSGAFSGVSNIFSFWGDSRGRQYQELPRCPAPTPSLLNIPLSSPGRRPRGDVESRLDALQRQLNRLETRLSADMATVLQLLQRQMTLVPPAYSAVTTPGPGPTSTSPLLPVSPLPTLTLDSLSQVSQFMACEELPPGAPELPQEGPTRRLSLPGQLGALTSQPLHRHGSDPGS

Which Potency [1] does the source give for CC(C)=CCC/C(C)=C/CC/C(C)=C/C(=O)OCC(=O)[C@@]1(O)CC[C@H]2[C@@H]3CCC4=CC(=O)C=C[C@]4(C)[C@H]3[C@@H](O)C[C@@]21C here?
Its Potency is active: 18.8 µM.

And the Potency [2]?
The Potency was inconclusive: 33.5 µM [cytotoxic, single point].

What about the Potency [3] of the same compound?
Its Potency is inconclusive: 13.8 µM [inhibitor, partial curve].

What about the Potency [4] of the same compound?
Its Potency is “inactive”.

Which Potency [1] does the source give for C1CC(COCC2CO2)CCC1COCC1CO1 (centres undefined) here?
The Potency was inconclusive: 61.1 µM [cytotoxic, single point].

What about the Potency [5] of the same compound?
Its Potency is inconclusive: 68.6 µM [activator, single point].

What about the Potency [3] of the same compound?
The Potency was “inactive”.

What about the Potency [6] of the same compound?
Its Potency is inconclusive: 89.4 µM [inhibitor, single point].

And the Potency [7]?
Its Potency is inconclusive: 35.6 µM [inhibitor, partial curve].

What about the Potency [4] of the same compound?
The Potency was inconclusive: 39.9 µM [inhibitor, partial curve].

Which Potency [1] does the source give for O=C=NCC1CCCC(CN=C=O)C1 (centres undefined) here?
The Potency was “inactive”.

What about the Potency [5] of the same compound?
Its Potency is inconclusive: 68.6 µM [activator, partial curve, poor fit].

For CCC(=O)OC, which Potency [1] is on record?
The Potency was “inactive”.

What does the source list for O=C(O)CCCCCCCCCCCBr?
Potency [1]: inactive; Potency [5]: inactive; Potency [3]: inconclusive: 28.3 µM [inhibitor]; Potency [6]: inconclusive: 89.6 µM [inhibitor, single point]

Which Potency [1] does the source give for CCC(C)(C)C(=O)O[C@H]1C[C@@H](C)C=C2C=C[C@H](C)[C@H](CC[C@@H]3C[C@@H](O)CC(=O)O3)[C@H]21 here?
The Potency was inconclusive: 27.3 µM [cytotoxic, partial curve].

And the Potency [2]?
The Potency was inconclusive: 68.6 µM [cytotoxic, single point] and inconclusive: 33.5 µM [cytotoxic, single point].

For CC(C)(O)c1ccc(CNC(=O)c2cccnc2Oc2ccc3nonc3c2)cc1, which Potency [1] is on record?
The Potency was inconclusive: 68.6 µM [cytotoxic, single point].

And the Potency [2]?
Its Potency is inconclusive: 61.1 µM [cytotoxic, partial curve, poor fit].

And the Potency [3]?
The Potency was inconclusive: 79.6 µM [inhibitor, partial curve, poor fit].

And the Potency [6]?
Its Potency is inconclusive: 89.4 µM [inhibitor, single point].

And the Potency [4]?
The Potency was inconclusive: 35.6 µM [inhibitor, partial curve].

Which results are given for Cc1cc(=O)c2c(O)c3c(O)cc(=O)c4c3c3c(cc(O)c1c23)C(C)(C)C=4O?
Potency [1]: active: 2.59 µM; Potency [2]: inconclusive: 1.83 µM [cytotoxic, full curve]; Potency [5]: inconclusive: 1.46 µM [activator, partial curve, poor fit]; activity change, negative = inhibition [3]: inactive: -16.7% [at 23.6 µM]; Potency [7]: inconclusive: 7.56 µM [inhibitor, full curve, poor fit]

Which Potency [1] does the source give for CC(C)(C)CC(=O)OCC(=O)[C@@]1(O)CC[C@H]2[C@@H]3CCC4=CC(=O)C=C[C@]4(C)[C@H]3[C@@H](O)C[C@@]21C here?
Its Potency is inconclusive: 33.5 µM [cytotoxic, single point].

What about the Potency [5] of the same compound?
Its Potency is inconclusive: 2.11 µM [activator, partial curve].

Which Potency [1] does the source give for CCOC(C)=O here?
Its Potency is “inactive”.

What about the Potency [2] of the same compound?
Its Potency is inconclusive: 0.245 µM [cytotoxic, single point].

What about the Potency [8] of the same compound?
The Potency was “inactive”.

What about the Potency [6] of the same compound?
The Potency was inconclusive: 80.1 µM [inhibitor, single point].

What about the Potency [4] of the same compound?
The Potency was “inactive”.

Which Potency [1] does the source give for CN1CCCC(n2nc(Cc3ccc(Cl)cc3)c3ccccc3c2=O)CC1 (centres undefined) here?
Its Potency is active: 29.8 µM.

What about the Potency [2] of the same compound?
Its Potency is active: 26.6 µM.

What about the Potency [6] of the same compound?
Its Potency is inconclusive: 43.6 µM [inhibitor, single point].

What about the Potency [7] of the same compound?
The Potency was inconclusive: 30.9 µM [inhibitor].

With COc1ccc(C(=O)c2ccccc2)c(O)c1 as the compound, how does the Potency [1] read?
Its Potency is “inactive”.

And the Potency [5]?
Its Potency is inconclusive: 33.5 µM [activator, single point].

And the Potency [3]?
Its Potency is inconclusive: 79.6 µM [inhibitor] and inconclusive: 30.9 µM [inhibitor, partial curve].

And the Potency [4]?
The Potency was active: 19.7 µM and active: 22.4 µM and active: 12.9 µM.

What about the Potency [9] of the same compound?
The Potency was inconclusive: 34.7 µM [inhibitor, partial curve].

With O=c1[nH]c2ccc(Cl)cc2o1 as the compound, how does the Potency [1] read?
The Potency was inconclusive: 54.5 µM [rising, partial curve].

What about the Potency [2] of the same compound?
Its Potency is “inactive”.

And the Potency [5]?
Its Potency is inconclusive: 34.4 µM [activator, partial curve, poor fit].

What about the Potency [3] of the same compound?
Its Potency is “inactive”.

Which Potency [1] does the source give for CC(=O)Oc1ccc(C2(c3ccc(OC(C)=O)cc3)Oc3ccccc3NC2=O)cc1 here?
The Potency was inconclusive: 33.5 µM [cytotoxic, single point].

And the Potency [5]?
The Potency was inconclusive: 29.8 µM [activator].

And the Potency [3]?
Its Potency is inconclusive: 38.9 µM [inhibitor, partial curve, poor fit].

What about the Potency [7] of the same compound?
The Potency was active: 2.45 µM.

What does the source list for S=c1nc[nH]c2nc[nH]c12?
Potency [1]: inconclusive: 59.6 µM [cytotoxic, single point]; Potency [2]: inconclusive: 10.6 µM [cytotoxic, full curve] and inconclusive: 29.8 µM [cytotoxic, partial curve, poor fit]; Potency [5]: inactive; Potency [8]: inactive; Potency [10]: inconclusive: 7.94 µM [activator, full curve, poor fit]; Potency [4]: inconclusive: 69.2 µM [inhibitor, single point]
